Paper PMC12136788
Changes are numbered by the printed parent chain. This is one part of the list.

T1: UNK ZnF1-3 (human, UniProt Q9C0B0 31-174)
T1 sequence: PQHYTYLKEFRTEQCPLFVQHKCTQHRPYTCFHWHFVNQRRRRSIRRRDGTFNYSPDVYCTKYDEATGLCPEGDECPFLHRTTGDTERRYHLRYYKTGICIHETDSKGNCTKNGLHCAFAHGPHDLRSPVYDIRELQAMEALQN

B1: chr2:155211079:155211080:+_ENSMUSG00000038375_ENSMUST00000043237|mus_hu|FALSE|FALSE (ssRNA)
RNA: GGGAGUUCUACAGUCCGACGAUCGAGGCUGGAGAGGCGCUGGAACAUGGUGGGGGGCGAAGCGCCUCACGGGGGCGCCCUAUGGCAGUGCAAAAACCUCUCUGUGAUCCAAACAGCUGGGAGGCAGCGAUUUUAUUGGACUCUCAACAGAGGAUUGAGCAUCA
B2: chr7:44244176:44244177:+_ENSG00000106636_ENST00000223369|hu_mus|hu_hu_hu_mus_False|58_88 (ssRNA)
RNA: GGGAGUUCUACAGUCCGACGAUCACUGUCGCUCCGGACGUAGACAUGGCACAGAUACUCUUGUUCUUUGACAGAAGCUCUAGUGCCUUUCCCCGAGCGUUCCACAAUCAGUUGACUUGUAAAGGUCAUGAAUUCCUGCACACUCAACAGAGGAUUGAGCAUCA
B3: 160265871_160267184_2501_CDS_ENSG00000122218_ENST00000241704|human|control|control (ssRNA)
RNA: GGGAGUUCUACAGUCCGACGAUCUGUCUCCUUUAGGCUCUCAGCUUCUUCAUCUAAGCCAUGGGUAGCAGCUGUGAGAUAGGCCAGGGACUUCUGUCCACAGUUCUUCAGGAUCCGCACACGCUCUGACACAUCACCCAGGUACAACAGAGGAUUGAGCAUCA
B4: 32524532_32524652_2074_3pUTR_ENSG00000091317_ENST00000205636|human|control|control (ssRNA)
RNA: GGGAGUUCUACAGUCCGACGAUCUAAAAAUAAUCAUAUGCCAACAGGGGAAUUGAACCACUUUCUAAAUCAUAGUAUGAACUCAUCUCUUCAGAUACUUGGUAAGUGGUCAAAGCUUGUUUUUAUAAUUACUUUCACUGUCUUCAACAGAGGAUUGAGCAUCA
B5: chr3:37053522:37053523:+_ENSG00000076242_ENST00000455445|hu_hu|motif|central (ssRNA)
RNA: GGGAGUUCUACAGUCCGACGAUCCAAAGAUGGAGCGAAUAUUGUCCACGGUUGAGGCAUUGGGUAGUGUCCUAACAUCAGCGGCUGUCUCUCCUUGUUUUUUAACUGAGAAACUAAUGCCUGCAUUGUGUACUGAAUACCUGCCAACAGAGGAUUGAGCAUCA
B6: 10122626_10122746_1606_CDS_ENSMUSG00000024290_ENSMUST00000067947|mouse|control|control (ssRNA)
RNA: GGGAGUUCUACAGUCCGACGAUCAAAUCCUACAAAAGGUAGCUGAUUGCCAACAAAAGCUUUUGGAAUAGGAAAUGUUUCUUCAUCUCCUUUAUCUUCUUCUAAGUCAUCAAAAUUACUAGUAUCAAUGUCACUACUUAAAUCCAACAGAGGAUUGAGCAUCA
B7: 26910399_26917107_1951_CDS_ENSG00000137055_ENST00000397292|human|control|control (ssRNA)
RNA: GGGAGUUCUACAGUCCGACGAUCCAUUGUUUUAGAUGCAGCUGAUCGGUAGGCACUAUUCCCUGUAAAUGGAUCAACUCCGGCCAUGGUAGUUCCCAUACUUGCAGAACCUGGUACAUAACGACCAGCACCUGUAAAAGGAUCCAACAGAGGAUUGAGCAUCA
B8: chr11:20202655:20202656:-_ENSMUSG00000020142_ENSMUST00000109594|mus_mus|FALSE|FALSE (ssRNA)
RNA: GGGAGUUCUACAGUCCGACGAUCAUAGACAUAAUUUGUAGUUUAGUUCCCCUUUAUCCAAACUCAGGUUUGCUUGGAGCUAAAAGCACACACAUACACACACACACUUGAUACAUAAAGUAUAUGUAAAUACAGAGGAAAAGACAACAGAGGAUUGAGCAUCA
B9: chr5:145543945:145543946:-_ENSG00000133706_ENST00000545646|hu_hu|hu_hu_hu_mus_True|8_58 (ssRNA)
RNA: GGGAGUUCUACAGUCCGACGAUCCUGAACGGCCAGUGGUGGGAAAUAAUCAAGCCAGUGCUCUGCUUCAGAAAACUUUACUAUCUCGUCAUCAGAGAGCCCAAGGGAUUUCAUAAUGUCCCACUGGUAUUUAGAAGAUCCUGCCAACAGAGGAUUGAGCAUCA
B10: chr11:95532483:95532484:+_ENSG00000166037_ENST00000540830|hu_hu|FALSE|FALSE (ssRNA)
RNA: GGGAGUUCUACAGUCCGACGAUCGCUGUUGCUUUCUGGAUAGGCAAGUGUAGGCUUACUUGGGGAGCGUCGUAGAUCACUAUUAAGGAAAGGCUUAUCCGAAGGAUAUACUACAUAUGGAGAUGAAGAAUGCCGAACCAUGCUCAACAGAGGAUUGAGCAUCA
B11: chr4:44140560:44140561:-_ENSMUSG00000035696_ENSMUST00000045793|mus_hu|motif|central (ssRNA)
RNA: GGGAGUUCUACAGUCCGACGAUCUAGAAGUAUUUCUGAUGCACUGACAACCCUAGGGGCAAACACAGUAUGCAAAACCCGGCUUGUAGGACUAGAUAGAGGCAACAAUGUCUCGCAAAGGGCAAAAUUGUGCUUCUGUGAAUUCAACAGAGGAUUGAGCAUCA
B12: chr1:135197953:135197954:+_ENSMUSG00000041757_ENSMUST00000038295|mus_mus|FALSE|FALSE (ssRNA)
RNA: GGGAGUUCUACAGUCCGACGAUCGAGCUGAUCCCAUCUACCAGUCUUUAAGGAGGAAGGGGCAGAUUUGGGGUGCUUGAACUAUGCAGAUAGGGGAUGUCAUGAAGGAGCACUUUCCAGAAGCCAGAGAGAGGCAAAAACAGGCAACAGAGGAUUGAGCAUCA
B13: chr2:172803269:172803270:+_ENSG00000128708_ENST00000264108|hu_mus|motif|central (ssRNA)
RNA: GGGAGUUCUACAGUCCGACGAUCGAAAGCAGUUUCAUCAUCCCCAAAGAGCUGAUGGGUAUAUUCAGGAAAGAAAGUUCGGAUGUCAUUCUCAAGAUCUUCAGGAAAACGAACUAGUUUCAGCUCGAUUGCUGUGUUGGUGUUCAACAGAGGAUUGAGCAUCA
B14: chr16:94651144:94651145:+_ENSMUSG00000040785_ENSMUST00000117648|mus_hu|mus_mus_mus_hu_True|98_98 (ssRNA)
RNA: GGGAGUUCUACAGUCCGACGAUCAUUUUCUUGAAUCAAGUGACCGAUAACAUAGUCCACUGCUUCAUUUAGAAAAUUUCUGCUAGAAAAACAGGUUGUAUAGUCUUCUGUGCUCAAAACUUUCCAAGAAAGCAAUUCUUUGAGCAACAGAGGAUUGAGCAUCA
B15: 36537775_36539393_140_3pUTR_ENSMUSG00000043671_ENSMUST00000051377|mouse|control|control (ssRNA)
RNA: GGGAGUUCUACAGUCCGACGAUCCUGCGGCCUCAGCAGUCCUCAGGGGCGGCUCGGGUUGGCAAAGAAGCACCCCGAGCACCCAGGCCUUAGGGACGCGCCCACUUCACGGGCUACAGCGAGGUGAAGACUAGGAGGACCCAGCAACAGAGGAUUGAGCAUCA
B16: chr1:46159212:46159213:+_ENSG00000159596_ENST00000372025|hu_mus|hu_hu_hu_mus_True|88_108 (ssRNA)
RNA: GGGAGUUCUACAGUCCGACGAUCUCUGAUCCCACCCAAGAAAGCUAGGAAACUGGCUCCAUAAGCCAUCUGAGUGAAAGCUAGGACGGGGAUAUAAGACUUUGUUAUUACCAUGAGAAGUGGGGGAGCAGUAAAGGGGAUUAACAACAGAGGAUUGAGCAUCA
B17: chr4:128450444:128450445:-_ENSMUSG00000028799_ENSMUST00000106072|mus_hu|FALSE|FALSE (ssRNA)
RNA: GGGAGUUCUACAGUCCGACGAUCGGGUGUUAACAGUAUGUAUAACAGCGUAUUUACAGGGAGUAACAUGCGGACAAAAAGCUACAAUACUGAGUAUCAGACGACGCAAGUCAAACAAAGGGCCGGGGGUGGGGGCAGAGAACCCAACAGAGGAUUGAGCAUCA
B18: chr5:145543945:145543946:-_ENSG00000133706_ENST00000545646|hu_hu|hu_hu_hu_mus_True|68_78 (ssRNA)
RNA: B9 RNA with G57A, C60U, C75U, U78C, C84G, U129C
B19: chr8:67243003:67243004:-_ENSMUSG00000031605_ENSMUST00000034017|mus_mus|FALSE|FALSE (ssRNA)
RNA: GGGAGUUCUACAGUCCGACGAUCAUCACUGGAGAUUAAGCUGCACACCUGCUCGAUGCCGAGGUUAAGAAACUCUUCACUAAGUACGACAUCUGCAAAAUGUUGUUCUGCAUACGUGUUGGCCUUAUUCAGGAGGUCUGUGCACAACAGAGGAUUGAGCAUCA
B20: chr18:67649703:67649704:-_ENSMUSG00000024533_ENSMUST00000115050|mus_hu|motif|central (ssRNA)
RNA: GGGAGUUCUACAGUCCGACGAUCGUUACUGUAUUUUGAUGUGGUAUGAAAUGCAGCCGCCAUGCCUUUCAUGAAACGGUGCGGUCGUGGUGCUGACUACAGACAUGUCCUAUGGCUUUCAGGAAAUUAUUGUGCAUGUGCAUUCAACAGAGGAUUGAGCAUCA
B21: 14041113_14041233_1033_ncRNA_ENSMUSG00000068036_ENSMUST00000124922|mouse|control|control (ssRNA)
RNA: GGGAGUUCUACAGUCCGACGAUCCAAAAGCUAACAGAAACAGGUAACUUCAUGUGAGUCAGAUCACAAAGAACUAGACAGGAUUUUUCUUGGUAAAGUAAAACGAAGUUUCUUGGAAUUGGAACAUCUCUAAAUUGCAACCAUCAACAGAGGAUUGAGCAUCA
B22: 63775417_63775537_632_3pUTR_ENSMUSG00000021273_ENSMUST00000054963|mouse|control|control (ssRNA)
RNA: GGGAGUUCUACAGUCCGACGAUCCCUUCCUGUUGGUCUUCCAGAUAAUCACGAAUGAUAUUUGUUUUCUGCAGGAACAGACCCAUUGAGUUGGCACACUCUAUGUCUUCACCAACUAUGGGGUCUUCAAACUCUGAGGCAGAGCAACAGAGGAUUGAGCAUCA

biological target: T1, UNK ZnF1-3; assay: nsRBNS (natural sequence RNA bind-n-seq); RBNS binding buffer (assumed for nsRBNS): 25 mM Tris pH 7.5, 150 mM KCl, 3 mM MgCl2, 0.01% Triton X-100, 500 ug/ml BSA, 20 U/ml SUPERase-In, 4 C; UNK is unkempt and MSI1 is Musashi-1; names of the RNAs are library labels; protein concentration not given here; high values mean tight binding

Binder	binding signal
B1	1.15 enrichment R
B2	0.505 enrichment R
B3	0.982 enrichment R
B4	2.28 enrichment R
B5	0.474 enrichment R
B6	0.794 enrichment R
B7	0.617 enrichment R
B8	0.914 enrichment R
B9	1.27 enrichment R
B10	1.39 enrichment R
B11	0.966 enrichment R
B12	2.5 enrichment R
B13	1.06 enrichment R
B14	0.357 enrichment R
B15	0.663 enrichment R
B16	1.11 enrichment R
B17	1.85 enrichment R
B18	1.31 enrichment R
B19	0.718 enrichment R
B20	0.827 enrichment R
B21	1.53 enrichment R
B22	0.405 enrichment R
